Assay results reported in the supplement of paper PMC3334620.
In all, about 33,000 sequences were measured (“E-score (-0.5 to 0.5)”: median about -0.04, highest 2% from about 0.36 on). The list shows a part of the results.

These sequences were tested against T1, Hmlalpha2 (UniProt P0CY09) (assay: PBM E-score (8-mer binding enrichment) (E-score (-0.5 to 0.5)); higher = stronger / more preferred TF binding; most listed sequences are background and not binding sites). Conditions: protein concentration: 200 nM; construct: GST-full length.
T1 sequence: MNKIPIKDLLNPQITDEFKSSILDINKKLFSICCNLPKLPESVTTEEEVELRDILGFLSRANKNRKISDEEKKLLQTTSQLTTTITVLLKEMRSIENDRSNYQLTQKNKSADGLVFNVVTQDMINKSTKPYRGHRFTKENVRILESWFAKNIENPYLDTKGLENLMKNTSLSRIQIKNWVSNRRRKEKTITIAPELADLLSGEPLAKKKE
In short: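 Universal all-10-mer Agilent arrays, double-stranded by primer extension on fresh or once-stripped slides, were probed with about 100-200 nM GST-tagged yeast transcription factors made by PURExpress. Fluorescent anti-GST detected bound protein, and masliner normalised the scans. E-scores from the Universal PBM Analysis Suite were given to each ungapped eight-base word pooled with its reverse complement.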

Sequence	PBM E-score
CGTCTAAC	0.144
CTAATCAA	0.0881
CACTTTAC	0.251
ATTAAGGC	-0.07
CAGCGAAA	0.0784
GGTTACGA	-0.121
ATGGGGTG	-0.0279
AGGTCGAA	0.00227
GGGTGGCA	-0.306
GGTCCCAC	-0.24
AGACGCGC	0.0259
CCAGGCGG	-0.0584
AAGAATGT	0.16
CGACCCGA	-0.28
AGGCGGTA	-0.0513
CAGGTAAG	-0.0532
CGAGCTCA	-0.242
CCATAAAC	-0.158
GTAAGCGA	0.12
GAATGACA	0.257
TCCGAGAA	-0.0131
AATAGCGT	0.147
CATACACG	0.398
CTGCAGGA	-0.0889
AGCGTTTA	0.186

Sequence	PBM E-score
CAACGCTG	0.0213
TGCCTAAA	-0.079
CACGCATA	0.115
GCTAAAAA	-0.00065
AGAATCTG	-0.187
ACGTCTTA	0.107
CAGAGTAC	0.0797
GACGGGCC	-0.23
TAACTAAA	0.151
CGCTGCCG	-0.168
CCGCGGCC	-0.192
GCGCCGCA	-0.0951
ATTAGGTA	0.269
GCGCATAA	-0.111
ATCTCCCA	-0.211
GCATAGGA	-0.0777
ATCTTACC	-0.167
ACTAGGTG	-0.177
GTCCGCTA	0.0217
GAAGTGAA	0.00643
AGCGCCCA	-0.344
CCGGTCAG	-0.289
GTCCATAA	-0.114
ATCCGGTC	-0.273
AATATCCT	-0.0463

Sequence	PBM E-score
GCCTAGCA	-0.313
ACTGCAAC	-0.143
CATCTAAA	-0.0362
GACATGTA	0.423
AAATGCCT	-0.0309
GGGGCAAA	-0.292
GCCGAAGA	-0.0269
ACCACAAC	0.158
ATTTAGCG	-0.0325
ACTGCATA	0.14
GACTGCTA	-0.28
CCGCCCAG	-0.274
CTGGGCTC	-0.15
CAATGGAC	0.0473
CTCGGGCC	-0.24
ACTTAACT	0.159
CGAGTCCA	-0.263
CCCAGACC	-0.176
GAGCGAAA	-0.0366
GACCGTGC	-0.143
AAGGGTGA	-0.238
CAGGAGCG	-0.0918
CCGTCTCC	-0.312
AGGCTGAA	-0.074
GTGAGCGA	-0.181

Sequence	PBM E-score
AGAGACCC	-0.226
ACTCGTAT	0.119
CACACTAA	0.191
AAGTACGA	0.101
GGGACGGA	-0.409
GATAGCAC	-0.141
CAGGCATA	-0.138
TCCCACCA	-0.136
GAAGCCGC	-0.151
CGGAACAG	-0.247
GACTGCTC	-0.212
ATGTATCA	0.271
GCTGGACC	-0.296
AAAATGTT	0.254
GTAAATCA	0.333
GAGTAATC	0.124
AGAATCAG	-0.191
AGTGCTCC	-0.226
CGAACCAC	-0.161
AACCGATT	-0.0547
GATGCGCA	-0.142
GGCGGTAC	-0.194
ATGTGTGG	0.0473
TCAGCGCA	-0.118
ACATATTA	0.389

Sequence	PBM E-score
CTGGTAAG	-0.0519
AAGAGGAA	-0.11
AGGTTTGA	-0.159
ACTCGTTA	0.0828
GGAGCGTA	0.0109
ACAAATAT	0.255
TCTCTCAA	0.0292
AGACAACA	0.214
AAACTAAC	0.272
AAGACACC	-0.166
ATTAGTCC	-0.0808
GATTCCCA	-0.191
AAGCGTTC	-0.0758
AGCATCCT	-0.223
AGACATCT	-0.158
GGTGTAGA	0.176
AGCACCGG	-0.24
ATCTCCAC	-0.0649
AATAAAAT	0.217
GCCTGGCA	-0.205
ATGCAATA	0.173
CGAAATAA	0.131
GCAACAAC	0.165
TCACTTCA	-0.131
AAAGCTTA	0.102

Sequence	PBM E-score
GAGCATAC	0.0354
ACAACCAA	-0.00406
AGTCCCAC	-0.303
CGAATTCC	-0.0493
GAACCCCC	-0.407
AATAGTCC	-0.118
GGGAGGAC	-0.236
ACCGAAGT	-0.0175
CGGACACA	-0.0204
ATGCCTCC	-0.174
CCCTCAGA	-0.285
CGCTTGCC	-0.0338
CACGGACG	0.208
TTAGAGAA	-0.0628
AGTAAACC	0.0456
CAATTAAA	0.074
CGACGTCA	-0.0558
AATTTCCT	-0.122
AGACTATA	0.0277
CAGGATCC	-0.279
CCTGCCTC	-0.388
ACGACTGG	-0.159
CCCGTACG	-0.198
CCTTCAAC	0.058
CGGGGCAA	-0.242

Sequence	PBM E-score
CGTTTCAC	0.0369
ACACGAAC	0.363
ATCGTCAT	0.0742
CACTAACA	0.162
AGTTGACG	0.0733
GATCAAAC	-0.0737
AGTGAGCC	-0.138
GAAGCCTA	-0.125
TCAGCCCA	-0.114
CATCACTC	-0.122
GCTTGGCC	-0.283
CTAGAATC	-0.113
CATGTCAG	0.314
CTTTAAAG	0.0438
CTGTCACC	-0.0592
CCTCTACA	0.189
AAAGTTGA	0.0376
ATGTTTGG	0.17
CCAACAAC	0.158
AAGCGCCG	-0.0679
GATCTTGA	-0.0587
GGACGAAA	0.038
TAAAAGCA	-0.097
AGAATAAT	0.0208
AGGCCACC	-0.246

Sequence	PBM E-score
TCTTGGAA	0.0595
AGGCTCAC	-0.202
ATACTTCG	-0.00072
GACCCCCC	-0.242
CTTCGGAA	-0.119
CACTTAAA	0.125
AGCATTTC	0.135
GTGGGTTA	-0.0705
CATAATAC	0.196
TCAAAGAA	0.232
ATTCTAGC	-0.0413
CAGATATG	0.0264
GAAGGGTA	0.0316
GCATTGGA	-0.157
GCCATGCC	-0.133
ATACTAAT	0.121
AATCCCAC	-0.0548
GCTCCAGA	-0.207
CCCCAGCC	-0.303
CGTCGCCC	-0.103
ATGTGGGC	-0.174
CATTACGC	0.321
CACAGCTA	0.0928
ACGGACGG	-0.161
CGATAGGA	-0.14

Sequence	PBM E-score
AAGCGATG	-0.145
GAAAACAA	0.185
TGGGCCAA	-0.0345
GGAGATTA	0.0631
CAAGATAC	0.186
CAGGTGGG	-0.0826
ATAAGCAT	-0.00286
ATGTATAA	0.395
ATGGAAGA	-0.206
TGAACGCA	0.131
CGGTGATC	-0.128
AATCTTCG	0.253
CTATCTCC	-0.192
AGCCGACA	-0.0285
AGCGACAC	0.112
AACTGTCG	0.0572
ACGGCTGA	-0.00597
AATCCTCC	-0.332
CCTTCTTC	-0.233
AGACTACG	-0.158
GAGGCTCA	-0.344
AAATATAG	0.108
GCATACAC	0.256
CATTTTGA	-0.0382
CGACCCCG	-0.147

Sequence	PBM E-score
CGCTTAAA	0.00069
TAAGGATA	-0.0306
ATTATTCA	0.188
CTCCCAGC	-0.168
CCTTTATC	-0.214
TAAGTGTA	0.187
GCTGGGAA	-0.139
ATCTCTCA	-0.0672
CGTAACGA	-0.0509
CCGGGTAG	-0.137
CGTTCGCA	0.0412
ACTGCGGC	-0.325
TAACAGAA	0.238
TTAGCCAA	0.00387
CGCACCCC	-0.102
CGGTTGCC	-0.119
TATCTTCA	0.0172
CGGAATAG	-0.0706
GAGAGAAC	-0.00521
CGCAGGGC	0.0152
ACTGGAAT	0.0461
AATGTTAG	0.185
GCTCCTGA	-0.263
CACAAGCG	0.074
GGTGCTAA	-0.042

Sequence	PBM E-score
AATCAATG	0.161
GTGTGAGA	0.0378
AATCTACG	0.203
CACAACTA	0.231
ACGGCCAC	-0.128
ATGGTTGA	-0.0541
AATTCAGG	0.00401
CGCGTGGC	-0.141
CTCACAAA	-0.0772
TAACAATA	0.25
CAGTGTAC	0.154
AATTTAGC	0.0165
CACTACAA	0.268
ACGCGACG	0.347
ACGGCGAT	-0.0673
AAAGTTCT	0.0159
AAACTTCA	0.0766
GATTAAGC	-0.0456
ACATAAGT	0.356
CTCCCCGA	-0.191
CAAATCTG	-0.0335
ATCGAGAT	-0.115
GCACTCCC	-0.147
CGCCTTGA	-0.196
CGTCGCTA	-0.0358

Sequence	PBM E-score
TCGGTCAA	-0.0506
AAAGACCG	-0.119
GAAACTGA	-0.103
CCGACCTA	-0.128
GAGCCTAA	-0.0246
GAAGGCGC	-0.237
ATAATTCA	0.221
TGCCGTAA	-0.0171
CAAGAACC	0.0865
CGTTAACG	0.211
CGCAACTA	0.0764
CCGTTCCA	-0.0782
TCTGACAA	0.138
AGCTATTA	0.0436
CAATCCAG	-0.139
CTTTACGC	0.42
CACTATGG	-0.0979
AGCGTCAT	-0.0362
CAAAGCGG	0.0664
ACAGTTAG	-0.128
AGAGTGTG	0.0438
ACACATAG	0.282
GACTCGTA	0.0321
GCTACGTA	0.25
ACTTGCAT	0.103

Sequence	PBM E-score
ACAGCGGG	-0.0601
ATTGCAGC	-0.145
CCCATACA	0.0756
ACCTAAAC	0.098
ATGCCTGG	-0.156
ATCCTAGC	-0.0219
GGGGAAAA	-0.236
AGAAACCA	-0.0818
GTTCTACA	0.29
CGGCTGCA	-0.0118
CAGAACGA	0.0755
CATAGGAC	-0.0432
AGATCGCC	-0.0822
CTTTATTC	-0.132
CCCTGGCC	-0.296
ATCGGTTA	0.039
GCCACCGC	-0.33
GAAGAAAA	-0.00099
CATAGTCA	-0.00969
CCTGCAGG	-0.392
CAAGATTG	0.0495
ACCCGTGC	-0.136
ATAACTAC	0.288
AGAAGAGG	-0.209
CACCCCTC	-0.276

Sequence	PBM E-score
CGAGTCTC	-0.322
CGACCTAA	0.0192
GTTTATAA	0.295
GAGCCCCC	-0.389
CCTTGCTA	0.00553
CAAGCGGA	-0.114
ATCCCCGA	-0.0944
CAATAAGA	0.0453
ACGGCTCT	-0.193
ATACTTCA	-0.00082
ATCTTAAA	-0.0724
CCTCATTA	0.138
ATTTGCTG	0.024
TCGCCAAA	-0.179
AGTTCTCG	-0.0561
AAGTCAAC	0.0754
CAGCGACC	-0.303
AATATCAC	-0.0554
AAAGGCAT	0.0489
